Results taken from paper PMC12136788.
The list shows a part of the results.

T1: UNK ZnF1-3 (human, UniProt Q9C0B0 31-174)
T1 sequence: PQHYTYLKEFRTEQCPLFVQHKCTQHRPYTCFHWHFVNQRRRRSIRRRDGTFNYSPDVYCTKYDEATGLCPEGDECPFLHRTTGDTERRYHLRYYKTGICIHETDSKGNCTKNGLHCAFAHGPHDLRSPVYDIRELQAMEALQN

B1: 102312509_102312629_5825_3pUTR_ENSG00000166135_ENST00000299163|human|control|control (ssRNA)
RNA: GGGAGUUCUACAGUCCGACGAUCUACAGAACUGACAAUGGAAGGGCAAGAACACACAGCAGACACAAAACAAGAGGACUAGCCAUGGGCAAAAUAAACAGAGCUGUCAAAAAUCAGAAAAGGGAGACGGCCCUAAGAUGAUCACAACAGAGGAUUGAGCAUCA
B2: chr11:77336104:77336105:-_ENSG00000074201_ENST00000525064|hu_mus|hu_hu_hu_mus_False|18_108 (ssRNA)
RNA: GGGAGUUCUACAGUCCGACGAUCCUCGCACAUUGCAGUGAACAUCGCCUCCAAUGCUGACUUAUCACUGGGCACAAAUCGAAAUUCAGAAAUGGGUUCAACAUCAUCAUUGUCUUCUUCCUCUUCUUCAGAGAGAGGUUCUUUCAACAGAGGAUUGAGCAUCA
B3: 38495777_38518809_496_CDS_ENSG00000114739_ENST00000352511|human|control|control (ssRNA)
RNA: GGGAGUUCUACAGUCCGACGAUCCUCCCGUGUCUCAGCCUCCCCACGCCCAGAGCCGGCGCACAGCGAUCCCCAGAGGAGGGCGAGGGCCACCCAGGGCGCCGUCAUGUUCCGCGGCGCCGCCCCGCGCACACCCGGAGCCCGCAACAGAGGAUUGAGCAUCA
B4: chr2:150438701:150438702:-_ENSG00000168288_ENST00000303319|hu_mus|FALSE|FALSE (ssRNA)
RNA: GGGAGUUCUACAGUCCGACGAUCAUCAGAACCUGAAGAUCCUGCAGUUGAAAAGGCUCUUGGAUUGAUGACUCUUUUCACUAAAGAACAAAAUCCUGGGAGAUAGGAAACCAGUCUGGCUCUGUUACAGAGCACAUGGGCCAUCAACAGAGGAUUGAGCAUCA
B5: chr19:34954956:34954957:+_ENSG00000126261_ENST00000246548|hu_hu|FALSE|FALSE (ssRNA)
RNA: GGGAGUUCUACAGUCCGACGAUCGAUCAAUAAAGUAUAGUCCUGGAGGAAGUCAUCUGCUUGAAGCCGGCUGCCAUUUCUAAUUCCAAAUUCUGACAACUUCUUGUGAUUAUUAGCUUCCGUCUCUCCCUCUUCGGAAGAUAUCAACAGAGGAUUGAGCAUCA
B6: chr1:46159212:46159213:+_ENSG00000159596_ENST00000372025|hu_mus|hu_hu_hu_mus_True|38_98 (ssRNA)
RNA: GGGAGUUCUACAGUCCGACGAUCUCUGAUCCCUCCCAAGAAAGAUAGGAAACCGGCUCCAUAAGCCAUCUGAGUGAAAGCUAGGACGGGGAUAUAAGUUUUUGUCAUUACCAUGAGAAGUGGGGGAGCAGUAAAGGGGAUUAACAACAGAGGAUUGAGCAUCA
B7: chr7:54825262:54825263:-_ENSG00000132432_ENST00000352861|hu_hu|hu_hu_hu_mus_False|38_38 (ssRNA)
RNA: GGGAGUUCUACAGUCCGACGAUCCUGCCGGCUGGGCUCCACAAACUGCAUUACCUGAUCCAUGUUUGUUGGAUGGCGGAUUGAGAGCGUAGAGACAACGUAGCACUGAGAGAACCGAGCCCAACGGAACCGGAAGCUGGCAACCAACAGAGGAUUGAGCAUCA
B8: chr2:48026839:48026840:+_ENSG00000116062_ENST00000540021|hu_hu|hu_hu_hu_mus_False|68_88 (ssRNA)
RNA: GGGAGUUCUACAGUCCGACGAUCAUAGUGAGCCACUAGCGUCCUAAAUCUCGAACAGUGGCGGUCAUCUGAAAACUGGCCGAUGAAAAACUUGCCCAGUGAAGUGUCCACAAAGCAAACACCAUACACACGAGUGUGACCAGACAACAGAGGAUUGAGCAUCA
B9: chr17:17163782:17163783:-_ENSG00000141030_ENST00000268717|hu_hu|FALSE|FALSE (ssRNA)
RNA: GGGAGUUCUACAGUCCGACGAUCGAGUUCUGAGGGGUUGUUGGUUGAAUACACUUGUGCUAACUCGUGGUAUGCAUUGCUAAGAGGCUUAAUGAAUCUACCCACAAUUUGAGAUGUAUAUUUUGGUAGCUGUUGUACUUUGCCCAACAGAGGAUUGAGCAUCA
B10: chr1:174983830:174983831:-_ENSG00000120333_ENST00000367677|hu_hu|motif|central (ssRNA)
RNA: GGGAGUUCUACAGUCCGACGAUCUUCUGGAGCUCAUUUACCAUGUCGCUCGCUGGAUCCCAGAAAGUUGCCCAUGGUCAGCGGAGUGACGGAAGACUAUACGACUAAGCCUCCAGCGCCGCUUCACACCACGCGGACGGGACGCAACAGAGGAUUGAGCAUCA
B11: chr11:86991360:86991361:+_ENSMUSG00000018548_ENSMUST00000041282|mus_mus|motif|central (ssRNA)
RNA: GGGAGUUCUACAGUCCGACGAUCUUCUCGAAUGAUAUUUUUUGUAGGAUCAUUGCACGACUGGUGAACCAUUUCGGCACGAUAUUCAUACUUGGAAGUUUCAGGCAAGCCAGCCGAUAGUUCCAAAAAUACAGAUAAAUAAUACAACAGAGGAUUGAGCAUCA
B12: chrX:140365796:140365797:-_ENSMUSG00000031285_ENSMUST00000033642|mus_mus|mus_mus_mus_hu_False|78_98 (ssRNA)
RNA: GGGAGUUCUACAGUCCGACGAUCCUUCUCAUUACUCAAUGCCUGCAAGGUUCUGGUUCUGUAGAAGCUACAGUGGGCGCUGUGAGUGGGGCUAGGCAACCCAUUCAUCCGGGAGCCUCGCAUGUUCCUGGAUGUCUUAUCUCUCAACAGAGGAUUGAGCAUCA
B13: chr13:28239862:28239863:+_ENSG00000186184_ENST00000399697|hu_hu|FALSE|FALSE (ssRNA)
RNA: GGGAGUUCUACAGUCCGACGAUCCUCUUUAUGAGAGGGCAAUGUGUUUUUAAUUGUGUUAAUUAGAAAUCUUUUAUUGGUGCUAGCAAGAGGACACUUCAUCCAACCCAUGGGUCCCAUUGUUUCAGCUCUAGUUUUCCCACGCAACAGAGGAUUGAGCAUCA
B14: chr4:138441076:138441077:-_ENSG00000189184_ENST00000507846|hu_hu|FALSE|FALSE (ssRNA)
RNA: GGGAGUUCUACAGUCCGACGAUCACACAACAAAUAAAACAAUUGCAGUAACAAAAAUAUGAUUUUAUAAAUGUUCUUAUACUAAAAAUAAAAGCAAAAAUAUGAGAUCAUGCACUGGAGACAAAAGCUAAAAAUGAAUAGUUACAACAGAGGAUUGAGCAUCA
B15: 30439987_30442568_417_CDS_ENSG00000156261_ENST00000286788|human|control|control (ssRNA)
RNA: GGGAGUUCUACAGUCCGACGAUCAGAAGCCAUUACAAUCAUUUUUGCAGCAGGAUGCUGUACUUCUAGUUCUCUUAAAAUAGUUGCUGCAUCGUUUGUCACAAACAACUUCUCCAAGUGGUUGAUAACCAUUUUGUUCAUUCCCAACAGAGGAUUGAGCAUCA
B16: 39878683_39881377_2562_3pUTR_ENSG00000121892_ENST00000303538|human|control|control (ssRNA)
RNA: GGGAGUUCUACAGUCCGACGAUCUACCUUGUCAUCCUCCAUUCUUAGGCACUGUAACAAGGACUCAUAUGUCUCUGCAGAGUGGAACGAGGUAGGAUGUGUAAAAGACAGAACCUUAAGAAGUUCAAGUCCUGAACGGAUAGCCAACAGAGGAUUGAGCAUCA
B17: chr2:90693216:90693217:+_ENSMUSG00000027282_ENSMUST00000136872|mus_mus|FALSE|FALSE (ssRNA)
RNA: GGGAGUUCUACAGUCCGACGAUCCUCUUUGAUAACUCGGUCAAAGGAGGAUGAAUAUUCUUUUUGUACAGUUACAGAUCCUAACUCCUCAGGUUUCUCAGACUCCUGGUAAUACUGUAAGACUUUCCCAUGGACCACAGUUCCCAACAGAGGAUUGAGCAUCA
B18: 33185460_33185580_2885_3pUTR_ENSG00000170275_ENST00000320954|human|control|control (ssRNA)
RNA: GGGAGUUCUACAGUCCGACGAUCUUCCUAACAGGUCUUCCCUCUUCCUUCUGCCCUUGUCCACUAAAGUUUUUCACAAUAUGGCAGCUAGAAUGACCCUUGCAAAAUAUAAAUCAAUCAAGGCACUCCUCUGUUCAAACCCUCCAACAGAGGAUUGAGCAUCA
B19: chr3:170585912:170585913:-_ENSG00000163584_ENST00000463836|hu_hu|FALSE|FALSE (ssRNA)
RNA: GGGAGUUCUACAGUCCGACGAUCGUGAACAACAUUCCCGAGAUUUCCAGUUUUGCCAUUGACUUUAACCUUCUCCCGUAGAAAUUGCUCAAAAUUUCCAGAAUCAAAAAUUCCAUCUUCUACUGGAUGAGUAAGGUCCAAAUUCAACAGAGGAUUGAGCAUCA
B20: chr3:176767854:176767855:-_ENSG00000177565_ENST00000430069|hu_hu|hu_hu_hu_mus_False|18_58 (ssRNA)
RNA: GGGAGUUCUACAGUCCGACGAUCGACAUCCUUGUUACUGGGCACGUCCUGCCCUCCUUCCCGUAUGCAGUGUCUAAGUACUAACUGCGUAGGGCCACUCGUGCUGUUCUCACUGAGAUUCCAUAUUCUUGCCGUGGAGUCUCCCAACAGAGGAUUGAGCAUCA
B21: chr12:111160049:111160050:-_ENSG00000186298_ENST00000335007|hu_hu|FALSE|FALSE (ssRNA)
RNA: GGGAGUUCUACAGUCCGACGAUCAAACUCUCCGCAAUAAUUGGGCGCAGAAAACAGAGUGACCAACUGCCUCUUUGCAAAAAAUUCAUAUCCAUCUUCAACCACCUGAUGGGCUCUACAUAUAAGAUCCAAAUCAUGCUUAUGCAACAGAGGAUUGAGCAUCA
B22: 106621378_106621966_916_CDS_ENSMUSG00000040661_ENSMUST00000046502|mouse|control|control (ssRNA)
RNA: GGGAGUUCUACAGUCCGACGAUCCUUCUCCUCUUCCUCGUCCUCCUCGCUGACAGACUCACUGCUGUCCACGAUGUGCAGCGUAUCCUCCUCUCCAGAACUCAGCUCAAUUACCUCGUCUCGACUACUCUUUUCAUCCUCACUCAACAGAGGAUUGAGCAUCA

Each binder was assayed against T1, UNK ZnF1-3 (assay: nsRBNS (natural sequence RNA bind-n-seq); RBNS binding buffer (assumed for nsRBNS): 25 mM Tris pH 7.5, 150 mM KCl, 3 mM MgCl2, 0.01% Triton X-100, 500 ug/ml BSA, 20 U/ml SUPERase-In, 4 C; UNK is unkempt and MSI1 is Musashi-1; names of the RNAs are library labels; protein concentration not given here; high values mean tight binding).
B1 was tested, and the binding signal was 2.71 enrichment R. B2 gave a binding signal of 0.84 enrichment R. B3 was tested, and the binding signal was 1.28 enrichment R. Work on B4 yielded a binding signal of 1.07 enrichment R. In the case of B5, the binding signal is reported as 1.01 enrichment R. For B6, the binding signal was 1.52 enrichment R. In the case of B7, the binding signal is reported as 1.44 enrichment R. In the case of B8, the binding signal is reported as 1.31 enrichment R. B9 was tested, and the binding signal was 0.745 enrichment R. With B10 the binding signal was 0.548 enrichment R. In the case of B11, the binding signal is reported as 1.03 enrichment R. Binder B12 has a binding signal of 0.584 enrichment R. B13 gave a binding signal of 0.918 enrichment R. B14 was tested, and the binding signal was 2.65 enrichment R. Binder B15 has a binding signal of 0.579 enrichment R. B16 showed a binding signal of 0.55 enrichment R. In the case of B17, the binding signal is reported as 0.992 enrichment R. In the case of B18, the binding signal is reported as 1.54 enrichment R. For B19, the binding signal was 0.799 enrichment R. B20 showed a binding signal of 0.473 enrichment R. B21 gave a binding signal of 1.67 enrichment R. For B22, the binding signal was 0.604 enrichment R.
